Reference: PubChem BioAssay AID1159614 (National Center for Advancing Translational Sciences (NCATS), 2016)
In all, about 45,000 compounds went through this assay and about 65 (0.1%) were called active. The call rests on the fitted dose curve; in most records, active means well fitted activation curve with a large enough effect; inconclusive means small, poorly fitted or top-dose-only effect; inactive means no such curve, though single readings can be large or run the other way. The list shows a part of the results.

Target: Galactocerebrosidase (Homo sapiens) (UniProt P54803)
Experiment: A Novel Cell-Based Assay to Identify Small Molecules for B -Galactocerebrosidase; further: 0% is about no effect; nearly all actives have a fitted effect of over 65% in size
Details: 145M-Twi-hGALC-G270D cells (Twitcher mouse brain line with human GALC G270D), HMU-beta-Gal fluorescence, 48 h; series mostly up to 57.5 µM; activation: at the top concentration
Procedure, shortened: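 Live 145M-Twi cells (Twitcher mouse brain-derived, GALC-null) stably expressing human GALC-G270D, with a wild-type GALC line, were compound-treated. Residual GALC activity was then read as fluorescence from 0.1 mM final HMU-β-gal at pH 5.2; higher signal means activation.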

Sequence of UniProt P54803 (P54803 whole entry, looked up): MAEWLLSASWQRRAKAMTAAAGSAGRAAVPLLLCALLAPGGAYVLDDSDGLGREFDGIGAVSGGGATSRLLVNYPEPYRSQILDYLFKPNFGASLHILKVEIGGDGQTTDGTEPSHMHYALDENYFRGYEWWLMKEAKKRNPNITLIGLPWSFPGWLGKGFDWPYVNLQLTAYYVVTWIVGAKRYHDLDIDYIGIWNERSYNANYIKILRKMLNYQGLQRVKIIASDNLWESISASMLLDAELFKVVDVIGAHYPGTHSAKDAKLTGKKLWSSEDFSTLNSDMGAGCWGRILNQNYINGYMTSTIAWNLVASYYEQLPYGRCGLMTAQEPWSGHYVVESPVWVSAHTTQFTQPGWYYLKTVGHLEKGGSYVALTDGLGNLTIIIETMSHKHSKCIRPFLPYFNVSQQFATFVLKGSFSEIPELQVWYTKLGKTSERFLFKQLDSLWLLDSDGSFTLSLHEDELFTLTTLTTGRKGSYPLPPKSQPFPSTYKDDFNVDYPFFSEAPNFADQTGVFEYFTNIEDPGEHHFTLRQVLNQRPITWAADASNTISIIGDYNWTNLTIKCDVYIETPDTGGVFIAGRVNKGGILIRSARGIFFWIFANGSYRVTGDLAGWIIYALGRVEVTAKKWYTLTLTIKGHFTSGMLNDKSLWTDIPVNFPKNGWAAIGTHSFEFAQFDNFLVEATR

activation, inactive:
Nc1nnc(-c2cccc(Cl)c2Cl)c(N)n1 -18.2%
COc1ccc(CNC(=O)c2ccc3c(c2)nc2n3CCCCC2)cc1 -15.2%
Cc1ccc(NS(=O)(=O)c2ccc3c(c2)N(C)C(=O)CC(=O)N3C)cc1Cl -3.01%
Cc1ccc(-n2c(=O)c3ccc(C(=O)NCc4ccco4)cc3n(CC(=O)Nc3ccc(C)c(F)c3)c2=O)cc1 -1.37%
CCC1CN(C(=O)N2CCC(C(=O)N3CCN(c4ccccc4)CC3)CC2)c2ccccc2O1 (stereo not given) -8.2%
Cc1cc(C)n(C(C)CC(=O)Nc2ccc(Cl)cc2C)n1 (stereo not given) -6.75%
CCCCC(=O)N1CCc2cc(OC)c(OC)cc2C1COc1ccc(C(=O)OCC)cc1 (stereo not given) -16.5%
Cc1cccc(C(=O)n2nc(C)c(S(=O)(=O)N3CCOCC3)c2C)c1 45.8%
COc1ccc(Cn2ccc3nc(C)c(C(=O)Nc4cc(OC)c(OC)c(OC)c4)cc3c2=O)cc1 -27%
CCOc1ccccc1NS(=O)(=O)c1cc2[nH]c(=O)c(=O)[nH]c2cc1C 1.44%
CCOc1ccc(Sc2cc(C(=O)NCc3ccc(C)cc3)c3ccccc3n2)cc1 -10.1%
CC[C@@]1(O)C(=O)OCc2c1cc1n(c2=O)Cc2cc3c(CN(C)C)c(O)ccc3nc2-1 -6.7%
CCOC(=O)c1cc(-c2ccc(C)cc2)n(CCCC(=O)Nc2cc(C)ccc2C)c1 -23.2%
Cc1cc(C)c(S(=O)(=O)NCCc2sc3nc(-c4ccc(F)cc4)nn3c2C)c(C)c1 0.545%
O=C(NCc1ccco1)c1ccc2c(c1)N(Cc1ccccc1)C(=O)c1ccccc1S2 9.89%
CCC1CCCCN1C(=O)c1c[nH]c2ccc(S(=O)(=O)Nc3cccc(OC)c3)cc2c1=O (stereo not given) -22.6%
O=C(NC1CCCCC1)c1ccc(CSc2nc3cccnc3n2Cc2cccc(F)c2)cc1 -12.9%
Cc1cc(C)cc(-n2ccn(CC(=O)c3ccc(F)cc3)c(=O)c2=O)c1 -10.8%
Nc1c(C(=O)NCc2cccs2)nnn1CC(=O)Nc1cccc(F)c1 -14.1%
COC(=O)c1scc(-c2ccc(C)cc2)c1S(=O)(=O)N1CCN(c2ccc(F)cc2)CC1 -1.3%
Cc1ccc(N(C)S(=O)(=O)c2ccc3[nH]c(=O)ccc3c2)cc1 -8.82%
O=C(O)c1ccc(NS(=O)(=O)c2ccc(Cl)c(C(=O)Nc3ccccc3)c2)cc1 -11.5%
Cc1ccc(NC(=O)c2sc3ncnc(N(C)C4CCCCC4)c3c2C)c(C)c1 -11%
O=C(c1ccc(CS(=O)(=O)c2ccc(Br)cc2)o1)N1CCN(c2ccc(F)cc2)CC1 -16.9%
CCOc1ccc(NC(=O)CCc2c(C)nc3cc(-c4ccccc4OC)nn3c2C)cc1 -23.8%
COC(=O)c1ccc(CSc2c(C(C)C)cnc3c2c(=O)n(C)c(=O)n3C)cc1 -14.2%
Cc1cccc(C2=Nc3ccccc3N=C(c3cc(Cl)ccc3O)C2)c1 -7.91%
Cc1oc2c(cc(NS(=O)(=O)c3ccc(C(C)C)cc3)c3ccccc32)c1C(=O)OCc1ccccc1 5.56%
N#C/C(=C\c1ccc(OCc2ccc(Cl)cc2Cl)cc1)c1nc2ccccc2[nH]1 14.9%
COc1ccc(NC(=O)c2cnn(-c3ccc(C)c(C)c3)c2C2CCNCC2)cc1OC -8.1%
O=C(Nc1nc2n(n1)C(c1ccc(F)cc1)C=C(c1ccc(Cl)cc1)N2)c1ccc([N+](=O)[O-])cc1 (stereo not given) -13.5%
CCOc1ccc(-n2c(C)nc3cc(C(=O)NC4CCCC4)ccc32)cc1 -18.9%
COc1ccccc1CC(=O)Nc1ccc2nc(Nc3cccc(C(F)(F)F)c3)cc(C)c2c1 -13.1%
CCCNC(=O)Cn1nc(-c2ccc(OC)cc2)c2cnc3ccc(F)cc3c21 -4.86%
Cc1cccc(NC(=O)/C(C#N)=C/c2ccco2)c1 -32.4%
COc1ccc(OC)c(CNC(=O)c2cc3c(Cl)nc4ccccc4c3s2)c1 -19.7%
CCOc1ccccc1CNC(=O)c1ccc(CS(=O)Cc2cccc(Cl)c2)o1 (stereo not given) -7.46%
COc1cccc(C2CC(=O)Nc3c2ccc(C)c3C)c1OC (stereo not given) -5.05%
CCCC(CCC)(C(=O)OCC)C(=O)OCC -13.2%
CCOCCOC(=O)/C=C/c1ccc(OC)cc1 -14.8%
CSc1ccc(C2C(C(=O)Nc3ccccc3)=C(C)Nc3nc4ccccc4n32)cc1 (stereo not given) -17.8%
Cc1cccc(NC(=O)CSc2nnc(NC(=O)Nc3ccccc3)s2)c1C -6.59%
CCc1ccc(NC(=O)NCCc2c(C)nn(C)c2C)cc1 -6.99%
COc1ccc(S(=O)(=O)c2c(Nc3ccccc3F)sc(C(=O)c3cccc(OC)c3)c2N)cc1 -27.8%
CCc1ccc(NC(=O)CC2C(=O)NCCN2C(=O)c2ccc(F)cc2)cc1 (stereo not given) -5.33%
Cc1ccc(NC(=O)CSc2ncc(-c3ccccc3)[nH]2)cc1 -4.1%
COc1cccc(NC(=O)CSc2nnc(-c3cccc(OC)c3)o2)c1 -24.4%
NC[C@H]1O[C@H](O[C@H]2[C@H](O)[C@@H](O[C@H]3O[C@H](CO)[C@@H](O)[C@H](N)[C@H]3O)[C@H](N)C[C@@H]2N)[C@H](N)[C@@H](O)[C@@H]1O -6.42% [at 23.8 µM]
Cc1ccccc1CNC(=O)C(=O)NCC(c1ccco1)S(=O)(=O)c1cccs1 (stereo not given) -19.6%
CSc1ccc(CNC(=O)Cn2nc(N3CCN(c4ccccc4)CC3)ccc2=O)cc1 -13.7%
Cc1ccc(OCC(=O)Nc2ccccc2C(=O)OCc2cc(=O)n3ccsc3n2)cc1 -11.5%
O=C(C1CCC(Cn2c(=O)c3sccc3n(Cc3ccccc3)c2=O)CC1)N1CCOCC1 (stereo not given) -31.7%
O=C(NC1CC(=O)N(c2cccc(F)c2)C1)c1ccc2c(c1)OCO2 (stereo not given) -4.55%
CC(=O)c1ccc(NC(=O)COc2ccccc2-c2nc(-c3ccc(C)cc3)no2)cc1 -16.7%
O=C(Nc1cc2c(cc1C(=O)c1ccccc1Br)OCCO2)c1ccccc1 -10.6%
Cc1ccc(Cl)cc1N1CCN(C(=O)c2cnn(C)c2C2CCN(C(=O)OC(C)(C)C)CC2)CC1 -2.22%
Cc1ccc(-c2nnc(Nc3ccccc3O)c3ccccc23)cc1 -18.1%
Cc1ccc2sc(-c3ccc(N)cc3)nc2c1 -17.4%
O=C(Nc1ccc2nc(SCC(=O)N3CCc4ccccc43)sc2c1)c1ccccc1 -0.549%
CCNC(=O)NCc1cccc(Cl)c1 -18.4%
CCc1ccc(-n2c(=O)c3sc4ccccc4c3n(CC(=O)N(CC)Cc3ccccc3)c2=O)cc1 -7.11%
CCC(=O)N1CCc2cc(CNC(=O)c3ccccc3C)ccc21 -14.3%
CCCCNC(=O)CSc1nc2nc(C)c(Cc3c(F)cccc3Cl)c(C)n2n1 -7.93%
CCOC(=O)c1c(C)[nH]c(C)c1S(=O)(=O)N1CCCC(C(=O)Nc2cc(C)ccc2C)C1 (stereo not given) -8.04%
CCc1cc(C(=O)Nc2c(C)nn(Cc3ccccc3Cl)c2C)no1 -22.7%
CC(=O)O[C@]1(C(C)=O)CC[C@H]2[C@@H]3C=C(C)C4=CC(=O)CC[C@]4(C)[C@H]3CC[C@@]21C -9.29%
O=C(CCC(=O)N1CC2CCCN2c2ccccc21)NCc1ccc(F)cc1 (stereo not given) -5.86%
Cc1cc(C)c(NC(=O)CN2C(=O)c3cccnc3Sc3ccccc32)c(C)c1 -4.72%
COc1cc(OC)c(NC(=O)N2CCc3c([nH]c4ccccc34)C2c2ccccc2F)cc1Cl (stereo not given) -14.1%
O=C(Nc1ccccc1F)c1ccc(Cn2nc(N3CCN(c4ccccc4)CC3)ccc2=O)o1 -14.1%
COc1cc(OC)c(N(C)C(=O)c2c(C)oc3ncnc(N4CCCCC4)c23)cc1Cl -10.9%
CCOc1ccc(CCNC(=O)c2nnc(Cc3ccc(Cl)cc3Cl)o2)cc1OCC -1.91%
COc1ccc(C(=O)NCC(c2ccc3c(c2)OCO3)N2CCN(C)CC2)cc1 (stereo not given) -8.87%
O=S(=O)(c1ccc(F)cc1)N(CC(O)Cn1c2ccccc2c2ccccc21)c1ccccc1 (stereo not given) -10.7%
COc1ccc(NC(C)=O)cc1NC(=O)C1(c2cccs2)CCOCC1 -19.2%
CCn1cc(/C=C(\NC(=O)c2ccc(C)cc2)C(=O)NCCCn2ccnc2)c2ccccc21 -10.2%
CCOC(=O)c1cc2c(=O)n3ccccc3nc2n(CC2CCCO2)c1=NC(=O)c1ccccc1C (stereo not given) -17%
Cc1ccc2c(=O)cc(C(=O)NCc3ccccc3)oc2c1 -6.88%
COc1ccc(CNC(=O)C2CCCN(S(=O)(=O)c3ccc4c(ccn4C)c3)C2)c(OC)c1 (stereo not given) -4.57%
CCOc1ccc2nc(N3CCN(C(=O)c4ccco4)CC3)sc2c1 -12.8%
COc1cccc(C(=O)N2CCCCC2CCN2CCCCC2)c1 (stereo not given) -9.6%
O=C(CSc1nc2c([nH]c3ccccc32)c(=O)n1-c1ccc(F)cc1)N1CCc2ccccc21 17.6%
CCc1ccc(-n2nc(CO)c(C(=O)NCCc3ccccc3)n2)cc1 -5.79%
Cc1ccc(C)c(N2CCN(C(=O)Cc3c(C(=O)O)c(C)cn3C)CC2)c1 -7%
Cc1cc(C)cc(-n2c(SCC(=O)N3CCC(C)CC3)nc3c([nH]c4ccccc43)c2=O)c1 1.21%
COc1ccc(OC)c(NC(=O)c2cccc3c2C(=O)N(C2CCCCC2)C3)c1 -6.08%
Cc1cccc(Cn2c(CNS(=O)(=O)c3ccc(C(C)C)cc3)nc3cccnc32)c1 -8.66%
Cc1oc(-c2ccccc2F)nc1CS(=O)CC(=O)NC(C)C (stereo not given) -16.5%
COc1cc(NC(=O)CN2CCN(S(=O)(=O)c3ccc(Br)cc3)CC2)cc(OC)c1 -2.55%
Cc1ccc(Nc2cc(C(=O)NCCc3ccccc3)c3ccccc3n2)c(C)c1 -14.3%
COc1ccc(NC(=O)CSc2nc(-c3cc(OC)c(OC)c(OC)c3)[nH]c2-c2ccc(F)cc2)cc1 0.473%
O=C(CSc1nc(-c2ccccc2)cn1-c1ccccc1F)Nc1ccc(F)cc1 -14.6%
COc1ccc(CNS(=O)(=O)c2cc3c(cc2Cl)N(C(C)=O)CCO3)cc1 -6.92%
CC1CCN(C(c2ccccc2)c2sc3nc(-c4ccco4)nn3c2O)CC1 (stereo not given) -21.4%

Potency, inactive:
CC/C=C(\C(=O)N[C@@H]1C(=O)N2C(C(=O)OCOC(=O)C(C)(C)C)=C(COC(N)=O)CS[C@H]12)c1csc(N)n1
